The values that follow come from ChEMBL document CHEMBL4888484, “Replenishing the malaria drug discovery pipeline: Screening and hit evaluation of the MMV Hit Generation Library 1 (HGL1) against asexual blood stage Plasmodium falciparum ,using a nano luciferase reporter read-out” (2022).

The structures appear in SMILES notation. About 540 (0.36%) of roughly 150,000 compounds showed an effect of 50% or more. This is one part of the list.

The test system of the assay is Plasmodium falciparum. The assay is described as follows: Primary screen in NF54 nanoGlo assay, in single point, at 2uM, 72h; a lower Z score goes with more inhibition. The format is functional, Erythrocyte. The conditions noted are these: timepoint 72 hour.
Usually % Inhibition stands for the change of the read-out against control, counted positive when it falls. `Cc1ccc(-c2nccn2Cc2ccc(CN)cc2)cc1F`: the “% Inhibition” value is listed as -15% and the Z score amounted to 1.52.
Turning to `O=C(NC1(CN2CCOCC2)CCCC1)c1ccnc(-n2cnnc2)c1`, the “% Inhibition” value was -8% and the Z score was 1.35.
In the case of `COc1ccc(Br)cc1CC(=O)N(C)C1CCN(c2cc(C)nc(C)n2)CC1`, the “% Inhibition” value is -5% and the Z score amounted to 0.74.
In the same order, the values of `COc1cccc(C2C(C(=O)NCc3ccc(F)cc3)c3ccccc3C(=O)N2C2CC2)c1` (stereo unspecified) are -11% and 1.89.
The corresponding values for `Cc1ccc(Cl)cc1NC(=O)C(C(=O)Nc1cc(Cl)ccc1C)c1ccccc1` are -8% and 1.06.
The corresponding values for `CC1(C)C(NC(=O)Cc2cccc(C(=O)O)c2)C2CCCOC21` (stereo unspecified) are 0% and -0.02.
For `CN(C(=O)CC1CCCC1)c1cnn(C)c1`, the “% Inhibition” value was -10% and the Z score came to 1.
In the same order, the values of `O=S(=O)(c1ccccc1)N1CCC2(CC1)C[C@@H](CCOCC1CC1)CCO2` are -2% and 0.46.
In the same order, the values of `CNC(=O)[C@@H]1CCCN1C(=O)Nc1ccc2c(ccn2CC(C)C)c1` are 27% and -3.03.
In the case of `CC(C)CCN1C[C@@H](O)CNS(=O)(=O)c2ccc(-c3ccccc3F)cc2OC[C@@]2(C[C@@H](O)[C@@H](O)C2)C1`, the “% Inhibition” value was -25% and the Z score is 4.04.
With `c1cncc(-c2n[nH]cc2CNCCc2cccc3cccnc23)c1`, the “% Inhibition” value is -2% and the Z score is 0.34.
The corresponding values for `Cc1cnc(CN2C[C@]3(CCCN(C(=O)c4ccc[nH]4)C3)CCC2=O)cn1` are -18% and 2.52.
Consider `CCc1cc(C(=O)N2CCc3c(cc(-c4ccccc4Cl)c(=O)n3Cc3ccncc3)C2)no1`, for which the “% Inhibition” value was -12% and the Z score came to 1.53.
The corresponding values for `NC(=O)c1ccnc(NC[C@H]2CCCC[C@@H]2O)c1Br` are 4% and -0.54.
In the case of `COc1cc(CNC[C@]2(O)CCc3ccccc32)ccc1OC(C)C`, the “% Inhibition” value is on record as -1% and the Z score was determined as 0.08.
`CNc1nc2c(c(C(=O)N3CCCC3)n1)CN(C(=O)CCOC)CC2`: the “% Inhibition” value is listed as 3% and the Z score was -0.5.
In the same order, the values of `CCN(CC(C)C#N)C(=O)CNC(CCO)C1CCCCC1` (stereo unspecified) are -14% and 1.94.
Take `CC(C)c1noc(NCCCn2ccnc2)n1`: the “% Inhibition” value is given as -8% and the Z score is recorded as 0.72.
The corresponding values for `COc1ccc(-c2cc3n(n2)C[C@@](C)(C(=O)NCc2ccccc2OC)N(c2ccc(C)cc2)C3=O)cc1` are -4% and 0.55.
The corresponding values for `Cc1cc(C)n(C[C@H](C)N2CCN(CCc3ccccc3)CC2)n1` are -1% and 0.2.
The corresponding values for `c1cn(-c2ccc(-c3noc(-c4ccoc4)n3)cn2)cn1` are -6% and 0.61.
Turning to `CS(=O)(=O)CCCN1CCC(C2CCOCC2)CC1`, the “% Inhibition” value worked out at 11% and the Z score is -1.31.
As for `C[C@](O)(CNS(=O)(=O)C1CC1)c1cc2ccccc2o1`, the “% Inhibition” value is on record as -15% and the Z score was 1.95.
The corresponding values for `O=C(N[C@H]1CCS(=O)(=O)C1)c1cc(C2CC2)nc2ccccc12` are -9% and 1.22.
As for `Cc1c(C(=O)N[C@H]2CCCc3ccccc32)sc2ncnc(N(C)C3CCCCC3)c12`, the “% Inhibition” value was -13% and the Z score is on record as 1.18.
Consider `O=S(=O)(c1ccc2c(c1)OCCO2)N1CN(C2CCCC2)c2nc3ccccc3nc21`, for which the “% Inhibition” value is -12% and the Z score amounted to 1.81.
In the same order, the values of `CN1C(=O)CN(C(=O)NC(c2nccn2C)c2nccn2C)Cc2ccccc21` are -9% and 1.61.
Take `O=C1CN(S(=O)(=O)c2cccc(Cl)c2)C[C@H]2c3ccccc3CCN12`: the “% Inhibition” value is reported as 8% and the Z score is listed as -1.03.
In the same order, the values of `O=C(O)[C@@H](c1cccnc1)N1CCc2ccc(Cl)c(Cl)c2C1` are 2% and -0.41.
The corresponding values for `CCN1CCn2cc(C(=O)NC3CCCCCC3)nc2C1=O` are -7% and 0.97.
As to `CN(Cc1c(F)cccc1Cl)Cn1nc(-c2ccco2)oc1=S`, the “% Inhibition” value is -6% and the Z score stood at 1.05.
In the same order, the values of `C[C@@]1(C(=O)N2CCN(c3ccccn3)CC2)CCCCC(=O)N1` are -8% and 0.87.
In the same order, the values of `O=C(Nc1cnccn1)c1cc(F)c(Cl)cc1F` are -8% and 1.22.
On to `COCCN1C[C@]2(CCCN(C(=O)c3ccc[nH]3)C2)CCC1=O`, for which the “% Inhibition” value is -10% and the Z score was 1.39.
The corresponding values for `O=C(c1cccnc1NCc1cscn1)N1CCc2ccccc21` are -8% and 1.38.
The corresponding values for `CCCCNc1nc(-c2cn(C)nc2C)cc(C(F)F)n1` are -33% and 3.91.
Turning to `Cc1ccc(CN(C)CCc2cnn(C)c2)s1`, the “% Inhibition” value is recorded as -6% and the Z score came to 0.82.
In the case of `O=C1CC[C@H](c2noc(-c3ccc(OC(F)F)nc3)n2)CN1`, the “% Inhibition” value is -8% and the Z score is recorded as 0.96.
The corresponding values for `CN(C)c1cncc(-c2nc(-c3cnn(CCF)c3)no2)c1` are 4% and -0.49.
In the same order, the values of `O=C(c1ccnc2cc(Cl)ccc12)N1CCC(O)(C(F)F)CC1` are -9% and 1.07.
In the same order, the values of `COCCN(CC(=O)N(Cc1cccn1Cc1ccc(Br)cc1)C1CCCCC1)C(=O)N(C)C` are 1% and -0.21.
With `O=C(NCCCN1CCCC1=O)c1nnc(Cc2ccccc2Cl)o1`, the “% Inhibition” value is recorded as -2% and the Z score came out at 0.3.
The corresponding values for `CC(=O)N1CCC(CC(=O)Nc2ccc3c(c2)ncn3C)(N2Cc3ccccc3C2=O)CC1` are -10% and 1.46.
In the same order, the values of `CCN1C(=O)[C@@H]2CC3(CCN(C(=O)CCc4c(C)nn(C)c4C)CC3)CN2C1=O` are -5% and 0.65.
As for `N[C@H]1CN(Cc2[nH]c3ccccc3c2Cl)C[C@@H]1O`, the “% Inhibition” value turned out to be 5% and the Z score is -0.73.
In the same order, the values of `Cc1c(C#N)c(NC(=O)CN(C)S(C)(=O)=O)n2ccccc12` are -7% and 1.1.
In the same order, the values of `COc1ccc(S(=O)(=O)Nc2ccc(Nc3ccc(C)nn3)cc2)c(C)c1C` are -10% and 1.81.
The corresponding values for `C[C@@H]1CN(C(=O)c2ccccc2C#N)CC[C@@]1(O)C1CCOCC1` are 5% and -0.62.
Take `c1ccc(-n2ncnc2[C@@H]2COCCN2)cc1`: the “% Inhibition” value is given as 31% and the Z score is given as -1.03.
The corresponding values for `CCCn1nccc1C(=O)NCCCn1ncc2c(C)cccc21` are 33% and -4.47.
The corresponding values for `Cc1ccc(Nc2nc(C)c(C(=O)NCc3cccc(C(F)(F)F)c3)s2)c(C)c1` are 2% and -0.35.
In the same order, the values of `O=C(O)C1CN(C(=O)C2COc3ccccc3C2)c2ccccc2O1` (stereo unspecified) are 3% and -0.31.
As to `COc1ccc([C@@H]2CCCN2c2nnc(-c3ccccn3)s2)cc1`, the “% Inhibition” value is -13% and the Z score turned out to be 2.42.
